Measured values published in PubChem BioAssay AID445 (National Center for Advancing Translational Sciences (NCATS), 2006).
About 40 (0.04%) of roughly 110,000 compounds were called active. Inconclusive means that the source gave no clear call. Such entries were picked first, then a sample of the others. Calls come from the whole dose curve; as a rule, active = well fitted curve in the direction sought with a large enough effect in the signal ratio (not every such curve was filed as active); inconclusive = small, poorly fitted or top-dose-only effect, or a change in a side signal; inactive = flat fitted curve, though single readings scatter; the % refers to the signal ratio. Potencies beside an inconclusive call are fits to weak or partial responses and may not hold up.

Experiment: IkB Signaling;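 for IkBa stabilization activation: 0% = basal untreated cells and 100% = reference inhibitor full response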
Conditions: ABC-DLBCL IkBa-CBG/CBR dual luciferase ratio (green luciferase fused to IkBa over red control in OCI-Ly3 lymphoma cells), 4 h; IkBa stabilization activation: at 57.1 µM (top of the series), scaled: untreated 0%, proteasome inhibitor 100% unless noted
Summary of the method: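 Luminescence ratio of IκBα-fused green versus native red beetle luciferase in OCI-Ly3 cells, 4 h post-doxycycline with compound; red signal alone, scaled from basal (0%) to zero light (-100%), flagged nonspecific or cytotoxic effects.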
Potency is the fitted concentration of half-maximal effect.

| SMILES | Potency | IkBa stabilization activation |
| --- | --- | --- |
| Cc1ccc2[nH]c(=O)c(CN(Cc3ccccc3)Cc3nnnn3C3CCCC3)cc2c1 | inconclusive: 31.6 µM [signal inhibitor, partial curve] |  |
| Cc1c(C(=O)N2CCC(c3nc4ccccc4s3)CC2)oc2ccc(Cl)cc12 |  | inconclusive: -0.327% [signal inhibitor] |
| Cc1noc(C)c1-c1nc(N(C)Cc2ccco2)c2ccccc2n1 |  | inactive: 1.74% [at 11.4 µM, scaled: untreated 0%, proteasome inhibitor 100%] |
| Cc1ccc2c(CC(=O)Nc3ccc(S(=O)(=O)N4CCCCC4)cc3)coc2c1 |  | inconclusive: -1.37% [signal inhibitor] |
| Cc1ccc(Cl)cc1NC(=O)Cn1c(=O)oc2cc(S(=O)(=O)N3CCCC3)ccc21 |  | inconclusive: -0.0827% [signal inhibitor] |
| COc1ccc(N(C(=O)c2ccco2)S(=O)(=O)c2cc(OC)ccc2OC)cc1 |  | inactive |
| Cc1ccc(-n2ncc3c(Nc4cccc(C)c4C)ncnc32)cc1 |  | inconclusive: -0.643% [signal inhibitor] |
| Cc1cc(C)c2c(=O)nc(SCc3ccccc3C)n(C3CC3)c2n1 |  | inconclusive: -0.55% [signal inhibitor] |
| COCCn1c(=NC(=O)c2ccc3c(c2)OCCO3)sc2cc(C(=O)OC)ccc21 |  | inconclusive: 4.16% [signal inhibitor] |
| Cn1c(=O)c(-c2ccc(Cl)cc2)nc2cnc(N3CCNCC3)nc21 |  | inactive: -4.42% [at 11.4 µM, scaled: untreated 0%, proteasome inhibitor 100%] |
| COc1ccc(C(=O)OC2=C(C(=O)c3ccccc3)N(C)S(=O)(=O)c3ccccc32)cc1OC |  | inconclusive: 8.87% [signal activator] |
| Cc1ccc(C)c2[nH]c(=O)c(CCNC(=O)c3cc4ccccc4o3)cc12 |  | inactive |
| Cc1cc(NCCN2CCOCC2)n2ncc(-c3ccc(Cl)cc3)c2n1 |  | inactive |
| Cc1cc(C)nc(-n2nc(C)c3c2NC(=O)CC3c2cccc(O)c2)n1 (configuration not stated) |  | inconclusive: -0.287% [signal inhibitor] |
| COC(=O)CSC1=NS(=O)(=O)c2ccccc21 |  | inconclusive: 14.7% [signal activator] |
| CCOC(=O)c1ccc2c(c1)N(Cc1ccc(F)cc1Cl)C(=O)c1ccccc1S2(=O)=O |  | inactive |
| COc1cc(OC)c(NC(=O)Nc2cccc(OCc3cc(=O)n4ccccc4n3)c2)cc1Cl |  | inconclusive: -0.2% [signal inhibitor] |
| CCn1c(C)c(C)c2cc(C(=O)NCc3ccc(F)cc3)ccc21 |  | inconclusive: -0.483% [signal inhibitor] |
| O=C(C1CCCN(S(=O)(=O)c2ccc(Br)s2)C1)N1CCN(c2ccccc2F)CC1 (configuration not stated) |  | inconclusive: 12.4% [signal inhibitor] |
| Fc1ccc(Nc2ncnc3onc(-c4ccc(Cl)cc4)c23)cc1Cl |  | inconclusive: 2.7% [signal inhibitor] |
| COc1ccc(C)cc1NC(=O)NC(C)c1c(-n2cccc2)sc(C)c1C (configuration not stated) |  | inconclusive: -0.12% [signal inhibitor] |

| SMILES | Potency | IkBa stabilization activation |
| --- | --- | --- |
| CCOC(=O)c1c(C)[nH]c(CCC(=O)NC(C)c2ccccc2)c1C (configuration not stated) |  | inconclusive: 0.0929% [signal inhibitor] |
| CCN(CC)CCCNc1sc(S(=O)(=O)c2ccccc2)nc1S(=O)(=O)c1ccc(Cl)cc1 |  | inconclusive: 1.16% [signal inhibitor] |
| O=S(=O)(NCCCCCCc1ccccc1)c1cccc2c(Cl)cccc12 |  | inactive |
| COC(=O)C(NC(=O)CCc1c(C)nc2c(-c3ccccc3)c(C)nn2c1C)C(C)C (configuration not stated) |  | inconclusive: 0.252% [signal inhibitor] |
| CCCC(=O)Nc1nnc(S(=O)(=O)N2CCCCCC2)s1 |  | inactive |
| CC(C)Cc1ccc(S(=O)(=O)N2CCN(Cc3noc(CCC(=O)N4CCCCC4)n3)CC2)cc1 |  | inconclusive: 0.296% [signal inhibitor] |
| Cc1nc2cc(-c3cccc(F)c3)nn2c(C)c1CCC(=O)N1CCN(c2ccccn2)CC1 | inconclusive: 1.58 µM [signal inhibitor, full curve] |  |
| CC1=C(c2ccc(F)cc2)S(=O)(=O)N=C1N1CCC(C(=O)NCCc2ccccc2C)CC1 |  | inconclusive: 11.5% [signal activator] |
| O=C(/C=C\c1ccc(O)c(O)c1)O[C@H]1C[C@@](O)(C(=O)O)C[C@H](O)[C@@H]1O |  | inactive: -1.24% [at 11.4 µM, scaled: untreated 0%, proteasome inhibitor 100%] |
| Cc1scc(C(=O)N2CCN(S(C)(=O)=O)CC2)c1-c1ccccc1 |  | inactive |
| CCC(C(=O)NC1CCCC1)N(Cc1ccco1)C(=O)Cn1nnc(-c2ccc(C)cc2)n1 (configuration not stated) |  | inconclusive: -1.26% [signal activator] |
| Cc1ccc(CNC(=O)c2ccc(CSCc3cccc(C)c3)o2)cc1 |  | inconclusive: -0.134% [signal inhibitor] |
| Cc1cccc(NC(=O)c2ccc(S(=O)(=O)N(C)C)cc2)n1 |  | inactive |
| Cc1ccc(CCNS(=O)(=O)c2c(C)nc3sc(C)c(C)n3c2=O)cc1 |  | inconclusive: 0.508% [signal inhibitor] |
| Cc1nc2ccn(Cc3cccs3)c(=O)c2cc1C(=O)N1CCN(c2ccccc2F)CC1 |  | inconclusive: 2.64% [signal inhibitor] |
| O=C1C(=O)N(C2CCN(C(=O)c3ccccc3Cl)CC2)CCN1Cc1ccc(F)cc1 |  | inconclusive: -0.036% [signal inhibitor] |
| CC1CCN(S(=O)(=O)c2ccc3c(c2)N(CC(=O)NCCc2ccccc2)C(=O)CO3)CC1 |  | inconclusive: -2.03% [signal inhibitor] |
| COc1cccc(NC(=O)c2ccc3c(c2)CCN3S(C)(=O)=O)c1 |  | inconclusive: -0.644% [signal inhibitor] |
| CCC(=O)Nc1cccc(-c2cn3ccsc3n2)c1 |  | inactive |
| CCC(=O)N1CCc2cc(Br)cc(S(=O)(=O)N3CCN(c4ccccc4OC)CC3)c21 |  | inconclusive: 1.71% [signal inhibitor] |
| CCOC(=O)CC(=O)CSc1nc2ccsc2c(=O)n1Cc1ccccc1 |  | inactive |
